Measurements reported in PubChem BioAssay AID624296 (National Center for Advancing Translational Sciences (NCATS), 2012).
Among all 350,000 compounds or so, about 9,900 (2.8%) were called active. Inconclusive means that the source gave no clear call. Such entries were picked first, then a sample of the others. Calls follow the shape of the dose curve; as a rule, active = well fitted activation curve with a large enough effect; inconclusive = small, poorly fitted or top-dose-only effect; inactive = no such curve, though single readings can be large or run the other way. Potencies of inconclusive entries are left out as doubtful fits.

Test: A quantitative high throughput screen for small molecules that induce DNA re-replication in MCF 10a normal breast cells. Also: nearly all actives have a fitted effect of over 50% in size.
Conditions: MCF 10A DNA re-replication, Hoechst nuclear intensity, 48 h; series mostly up to 46.1 µM
Potency is read from the fitted curve at half-maximal effect; tags tell the direction and shape of the fitted curve.

Compound | Potency
COc1cccc(NC(=O)CN(C)C(=O)c2ccc(-c3ccc(Cl)cc3)o2)c1 | inconclusive [activator, partial curve, poor fit]
CCN(CC)S(=O)(=O)c1cc(NC(=O)C(C)N2CCN(Cc3ccc4c(c3)OCO4)CC2)ccc1C (stereo not drawn) | inconclusive [activator, partial curve]
CCOC(=O)CC(NC(=O)c1ccc(C)cc1)c1ccc(OC)cc1 (stereo not drawn) | inconclusive [activator, single point]
COc1ccc(/C=C2\CC/C(=C\c3ccc(OC)cc3OC)C2=O)c(OC)c1 | inconclusive [activator, partial curve, poor fit]
CN(Cc1ccccc1)C(=O)c1ccc(NC(=O)Cc2ccc(NC(=O)C3CCN(C(=O)CCc4ccccc4)CC3)cc2)cc1 | active: 14.6 µM
Cc1cc(=O)oc2cc(OCC(=O)Nc3c(Cl)cccc3C(F)(F)F)ccc12 | inconclusive [activator, partial curve]
CCCCCCCCCCCCCC[N+](C)(C)Cc1ccccc1 | active: 26.6 µM
COc1cc(OC)cc(C(=O)NNC(=S)NC(=O)c2cccnc2)c1 | inactive
CCOc1ccc(S(=O)(=O)O)c2cccnc12 | inactive
Cc1ccc(C(=O)NCC(=O)Nc2ccc(Cl)cc2)s1 | inactive
Cn1c(=O)c2c(c3ccccc31)OC(C)(C)CC2 | inconclusive [activator, single point]
Cc1ccc(C(C)C)c(OCC(=O)NNC(=O)Cn2[nH]c(=O)c3ccccc3c2=O)c1 | inactive
CSc1ccc(/C=C/C(=O)c2ccc(NC(=O)C(C)C)cc2)cc1 | inconclusive [activator, single point]
Cc1ccc(S(=O)(=O)c2c(C)nn(C(C)(C)C)c2OC(=O)C(C)(C)C)cc1 | inconclusive [activator, partial curve, poor fit]
COc1ccc(/C=C/C(=O)OC(C)CN2CCCCC2)cc1 (stereo not drawn) | inactive
CC(C)(C)c1ccc(C(=O)NCC(=O)N2CCCCCC2)cc1 | inactive
COc1ccc2nc(/C=N/NC(=O)[C@H](C)NC(=O)OC(C)(C)C)ccc2c1 | inconclusive [activator, full curve, poor fit]
CCN(CC)C1Oc2cc3c(cc2C(c2cccc(OC)c2O)C1C)OCO3 (stereo not drawn) | inconclusive [activator, single point]
O=C(O)c1ccc2c(c1)C(=O)N(CCCCCCCN1C(=O)c3ccc(C(=O)O)cc3C1=O)C2=O | inconclusive [activator, single point]
O=C(O)c1ccc2c(c1Nc1ccccc1)C(=O)c1ccccc1C2=O | inconclusive [activator, partial curve, poor fit]
COCCNc1c(-c2ccc(OC)cc2)nc2ccc(Cl)cn12 | inconclusive [activator, single point]
Cc1ccc2nc3c(c(Nc4cccc(O)c4)c2c1)CCC3 | inconclusive [activator, single point]
CC(C)c1ccc(C(C)NCCS(=O)(=O)c2ccc(Cl)cc2)cc1 (stereo not drawn) | inconclusive [activator, single point]

Compound | Potency
COc1ccc2c(C)cc(SCC(=O)NC3CCCCC3)nc2c1 | inconclusive [activator, partial curve, poor fit]
COc1ccc(C(=O)C[n+]2cccc(C(N)=O)c2)cc1 | inactive
COc1ccc(C(=O)Nc2ccc(S(=O)(=O)N3CCN(C)CC3)cc2)cc1[N+](=O)[O-] | inconclusive [activator, single point]
O=C(CN1CCC(NC(=O)c2ccc(Br)cc2)CC1)NCc1cccs1 | inconclusive [activator, single point]
CCCC(C(=O)NCCC(C)C)N(Cc1ccc(OC)cc1)C(=O)c1snc(C(N)=O)c1N (stereo not drawn) | inconclusive [activator, full curve, poor fit]
CCOC(=O)CC1(NC(=O)c2cc(COc3cccc(OC)c3)on2)CCCCC1 | inactive
CC1CCc2c(sc3nc(CN4CCOCC4)nc(N4CCc5ccccc5C4)c23)C1 (stereo not drawn) | inconclusive [activator, single point]
O=C(COC(=O)c1cc(=O)[nH]c2ccccc12)NC(=O)c1ccccc1 | inactive
COc1cnc(NS(=O)(=O)c2ccc(N)cc2)nc1 | inconclusive [activator, full curve, poor fit]
CCN(C(C)=O)c1nc(CCl)cs1 | inconclusive [activator, partial curve, poor fit]
Fc1cccc(Nc2cc(-n3cccn3)ncn2)c1 | inconclusive [activator, full curve, poor fit]
OCCNCc1cc(Br)ccc1OCc1ccc(Cl)cc1Cl | inconclusive [activator, single point]
Cc1cccc(NCCC(=O)c2ccc(Br)cc2)c1 | inconclusive [activator, single point]
O=C(CC1C(=O)NCCN1C(=O)c1ccc(F)cc1)OCc1ccccc1 (stereo not drawn) | inactive
COc1cccc(OC)c1OCCOc1ccc(C(=O)c2ccccc2)cc1 | inconclusive [activator, single point]
CCC(C)Nc1nc2c(c(=O)n(C)c(=O)n2C)n1Cc1ccc(F)cc1 (stereo not drawn) | inconclusive [activator, single point]
O=C(O)CCn1c2c(c3ccccc31)C[C@H](NS(=O)(=O)c1ccc(F)cc1)CC2 | inactive
Cc1ccccc1NC(=O)C(=Cc1ccc(C(=O)O)cc1)C(=O)Nc1ccccc1C | active: 13 µM
CCCOc1ccc(C2=CSC3=NCCN23)cc1[N+](=O)[O-] | inconclusive [activator, partial curve, poor fit]
Oc1ccc2ccccc2c1/C=C/c1ccc2c(Br)cc(Br)c(O)c2n1 | active: 8.2 µM
CN=c1sc(C(=O)Nc2cccc(Cl)c2)cc(=O)n1C | inconclusive [activator, partial curve]
S=C(c1ccc2c(c1)OCO2)N1CCOCC1 | inconclusive [activator, single point]
CCOc1ccc(NC(=O)Cn2nnc(C(=O)NCc3ccc4c(c3)OCO4)c2N)cc1 | inconclusive [activator, single point]

Compound | Potency
CC(C)(C)C(=O)Nc1nnc(SCc2ccc(F)cc2)s1 | inactive
O=C(CCNS(=O)(=O)c1ccc2nsnc2c1)N1CCN(c2ccncc2)CC1 | inconclusive [activator, partial curve]
COc1cc(-c2c(C#N)c(N)nc(SCc3ccncc3)c2C#N)cc(OC)c1OC | inactive
COc1ccc(C2/C=C\CN(C(=O)OCC3c4ccccc4-c4ccccc43)CC(=O)N2Cc2cccc(F)c2)cc1 (stereo not drawn) | inconclusive [activator, full curve, poor fit]
O=C(C1=C[C@H](c2ccc(C(F)(F)F)cc2)C[C@H](OCc2ccc(CO)cc2)O1)N1CCN(Cc2ccccc2)CC1 | inconclusive [activator, single point]
CCn1cc(C(=O)O)c(=O)c2cc(F)c(N3CCN(C(=S)NC(=O)c4ccc(Br)cc4)CC3)cc21 | inconclusive [activator, partial curve, poor fit]
CC12CCC(C(=O)NC3CCCCC3)([C@H](Br)C1=O)C2(C)C (stereo partly drawn) | inactive
Cc1cc(N/N=C/c2ccc(N(C)C)cc2)c2ccccc2n1 | inconclusive [activator, single point]
NNC(=O)c1cc2nc(-c3cccs3)cc(C(F)(F)F)n2n1 | inconclusive [activator, partial curve, poor fit]
CCCCn1c(N)c(N(CCOC)C(=O)c2cc3c(s2)CCC(C)C3)c(=O)[nH]c1=O (stereo not drawn) | inactive
CCN(C(=O)COc1ccc(F)cc1Br)c1c(N)n(Cc2ccccc2)c(=O)[nH]c1=O | inactive
Cn1nccc1NC(=O)Nc1cccc(Cl)c1 | inactive
CC(C)(C)NC(=O)CSc1ncnc2c1nnn2Cc1ccccc1Cl | active: 14.6 µM
CCOc1cccc(CNc2ccc(O)cc2)c1OCc1ccc(Cl)cc1 | inconclusive [activator, single point]
O=C(COc1ccccc1)NC(NC(=S)Nc1ccccc1C(=O)O)C(Cl)(Cl)Cl (stereo not drawn) | inactive
N/C(=N\OC(=O)C12CC3CC(CC(C3)C1)C2)c1ccccn1 | inconclusive [activator, partial curve, poor fit]
CN1C(=O)C(O)(C2COC(C)(C)CC2=O)c2cc(Br)ccc21 (stereo not drawn) | inconclusive [activator, single point]
CC(C)C[C@H](NC(=O)OC(C)(C)C)C(=O)N/N=C/C1=Cc2ccccc2OC1C (stereo partly drawn) | inconclusive [activator, single point]
O=c1cc(NS(=O)(=O)c2ccccc2)nc(SCc2ccc(Cl)cc2)[nH]1 | inconclusive [activator, single point]
COCc1c(C(=O)Nc2ccc(C)c(S(=O)(=O)N3CCOCC3)c2)oc2ccccc12 | inconclusive [activator, single point]
O=C(CN1C(=O)CC(c2ccco2)Sc2ccccc21)Nc1ccc2c(c1)OCCO2 (stereo not drawn) | inactive
Cc1c(C(=O)N2CCN(c3ccccc3F)CC2)sc2ncn(CC(=O)N3CCOCC3)c(=O)c12 | inactive
